Data as given in the supplement of paper PMC10126150.
Values marked as one replicate rest on one cluster of the flow cell; about a third of the high ones do not repeat.
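Further: ATP exposure 15 min at 22 °C before imaging.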

Each sequence was assayed on ATP (assay: switch fluorescence ratio, 500 uM ATP over buffer (Cy3 cluster intensity, sum of 5 cycles each) (fold (ratio)); higher = stronger signal-on switching upon ATP binding; sequences stand for … in TCGTCGGCAGCGTCAGATGTGTATAAGAGACAGTTTTTTTTTTTTTTTTTTTTTTTTT…TC). Conditions: aptamer strand: ATP DNA aptamer (quencher-CACCTGGGGGAGTATTGCGGAGGAAGG + anchor), 100 nM annealed; ATP concentration: 500 uM; one replicate.
How it was run: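 Switching-strand clusters labelled with Cy3 on a modified Illumina MiSeq flow-cell were annealed to 100 nM quencher-labelled ATP aptamer, imaged in selection buffer, and re-imaged after 15 min with 500 uM ATP at 22 °C. This was done over five cycles with NaOH stripping and re-annealing in between. The fluorescence ratio is summed target-cycle over summed buffer-cycle Cy3 intensity per cluster, averaged per switch-domain sequence, excluding clusters outside 100-1000 RFU.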
Work on CCATCAATGG yielded a switch fluorescence ratio of 1.08. ACCCCTGAGC was tested, and the switch fluorescence ratio was 1.09. CCTTAGTGAG showed a switch fluorescence ratio of 1.03. Sequence GGCACCTGTG has a switch fluorescence ratio of 1.03. CCGAAAGAAT was tested, and the switch fluorescence ratio was 4.16. For CTTAACTTTT, the switch fluorescence ratio was 1.06. In the case of TTGTTACG, the switch fluorescence ratio is reported as 0.981. ACAGCACCAC was tested, and the switch fluorescence ratio was 1.53. Work on GGAAGGACAC yielded a switch fluorescence ratio of 1.25. TGAGGCTGTG was tested, and the switch fluorescence ratio was 0.991. With CTTGGTATCG the switch fluorescence ratio was 0.97. CTCCAGTAGG was tested, and the switch fluorescence ratio was 1.15. In the case of ATTCGGTTCT, the switch fluorescence ratio is reported as 0.975. ATACGGTCGG was tested, and the switch fluorescence ratio was 1. For AACTCTGCC, the switch fluorescence ratio was 1.28. Work on GAGCGGCACT yielded a switch fluorescence ratio of 1.08. For CTCAGAAATG, the switch fluorescence ratio was 1.09. AGCACAAGCT was tested, and the switch fluorescence ratio was 1.01. TGACTCAGTG gave a switch fluorescence ratio of 1.05. In the case of TTACGGTGCT, the switch fluorescence ratio is reported as 0.969. With GATGGGTTCC the switch fluorescence ratio was 1.03. In the case of TCGCGACTCC, the switch fluorescence ratio is reported as 3.16. Work on ACAGTTATAA yielded a switch fluorescence ratio of 1.01. GCTGTTATAC gave a switch fluorescence ratio of 1.42. CACCGTACGA gave a switch fluorescence ratio of 1.6. For TTAGTAGCAC, the switch fluorescence ratio was 1.13. In the case of CAGATAAGC, the switch fluorescence ratio is reported as 1.02. Sequence TGGGCGAGTA has a switch fluorescence ratio of 1.01. CTCGATTCAT showed a switch fluorescence ratio of 1.01. CCCTCTTAGC gave a switch fluorescence ratio of 1.15. With CTTTTGGAGG the switch fluorescence ratio was 0.987. Sequence CTCCTACC has a switch fluorescence ratio of 1.32. For TTGCTCGTTT, the switch fluorescence ratio was 1.07. With ACATTGATTT the switch fluorescence ratio was 1.01. ATGGGGAGC showed a switch fluorescence ratio of 1.14. Sequence CAGTTAGAAC has a switch fluorescence ratio of 0.998. CCGACTGGCT was tested, and the switch fluorescence ratio was 1.59. With AGTACCTAAT the switch fluorescence ratio was 0.994. AATGCGGTTG gave a switch fluorescence ratio of 1.01. For TAAGGAGTTG, the switch fluorescence ratio was 1.03. In the case of GAGTCCTTTG, the switch fluorescence ratio is reported as 0.951. With AACGCCCTCT the switch fluorescence ratio was 1.02. AGCGGGTAAC gave a switch fluorescence ratio of 1. With GCGAAGCCAA the switch fluorescence ratio was 1.06. With TTTATAACG the switch fluorescence ratio was 0.985. Sequence GACACCTTTA has a switch fluorescence ratio of 1.07. ACGGAAAGTA gave a switch fluorescence ratio of 1.01. Sequence AACTCTATCG has a switch fluorescence ratio of 1.03. In the case of GATTACGGAT, the switch fluorescence ratio is reported as 1.02. CTTGATATAC was tested, and the switch fluorescence ratio was 1.52. With GCAGTGGGCT the switch fluorescence ratio was 1.02. ACGCTGGAGA gave a switch fluorescence ratio of 0.992. In the case of AACTGGTGGA, the switch fluorescence ratio is reported as 1.05. TGGAAAAACG gave a switch fluorescence ratio of 1.14. In the case of CGTGGTCGAC, the switch fluorescence ratio is reported as 1.04. Work on GATGTACGAG yielded a switch fluorescence ratio of 1.01. GGTATAATAT gave a switch fluorescence ratio of 1.01. In the case of TGTTGCATCA, the switch fluorescence ratio is reported as 1.01. Work on GGGGCAATTC yielded a switch fluorescence ratio of 3.84. ATGACAGTCT was tested, and the switch fluorescence ratio was 1.09. With TATATGAAGC the switch fluorescence ratio was 1.05. Work on GATCTTCATC yielded a switch fluorescence ratio of 0.966. GGGATTGCGT showed a switch fluorescence ratio of 1.01. For CTCCTTCTGT, the switch fluorescence ratio was 1.01. ATACCCACCA was tested, and the switch fluorescence ratio was 1.42. GACGATATGA was tested, and the switch fluorescence ratio was 1.1. Sequence GGGAGCAGT has a switch fluorescence ratio of 1.04. With CCGCGACTCT the switch fluorescence ratio was 3.23. In the case of CGCTAATTAT, the switch fluorescence ratio is reported as 1.13. AGTCGGTCTG gave a switch fluorescence ratio of 0.953. For GTTTTGGACT, the switch fluorescence ratio was 1. With CTTGGTAGGC the switch fluorescence ratio was 1.02. Work on AGCTTTAAAC yielded a switch fluorescence ratio of 1.03. GCGAGTTCCT was tested, and the switch fluorescence ratio was 1.01. Sequence GGCCCGGGT has a switch fluorescence ratio of 1.01. TGATTTTAC was tested, and the switch fluorescence ratio was 1.05. TACTTCGCCA was tested, and the switch fluorescence ratio was 2.42. For CGCGCAGTCT, the switch fluorescence ratio was 0.931. Work on GTTTTGTTAA yielded a switch fluorescence ratio of 0.98. With GGAATGATG the switch fluorescence ratio was 0.983. In the case of GAACCGGTCG, the switch fluorescence ratio is reported as 1.02. ACCGCAGTCA showed a switch fluorescence ratio of 1.57. Work on CCCTGGTGGC yielded a switch fluorescence ratio of 1.88. For TTCGTCTGG, the switch fluorescence ratio was 1.02. Work on ATTTTAACCT yielded a switch fluorescence ratio of 1.95. Sequence TTTTGGGGA has a switch fluorescence ratio of 1.01. CGATATTGGA gave a switch fluorescence ratio of 0.987. Sequence CGATCCCGTT has a switch fluorescence ratio of 0.996. With ATTCCTATG the switch fluorescence ratio was 1.02. Sequence GACGACAGAC has a switch fluorescence ratio of 2.31. ACGGTTAGGT gave a switch fluorescence ratio of 0.996. CGACCGACTA gave a switch fluorescence ratio of 1.35. Work on GATGGCATGG yielded a switch fluorescence ratio of 0.973. GCTTGGTCCG showed a switch fluorescence ratio of 1.03. GCCTTTTAAC showed a switch fluorescence ratio of 1.02. With AGAAGGGCTA the switch fluorescence ratio was 0.965. With CAGCGGCTTC the switch fluorescence ratio was 1.03. Sequence TTAGCGTAA has a switch fluorescence ratio of 1.03. For GGATGAGAAT, the switch fluorescence ratio was 1.05. Sequence CATATCTTCC has a switch fluorescence ratio of 2.02. For TTTTTCAGAC, the switch fluorescence ratio was 1.05. Sequence GCCAGCCGGA has a switch fluorescence ratio of 1.01. GTCCCAGGTT was tested, and the switch fluorescence ratio was 2.44. GTGATAATCT was tested, and the switch fluorescence ratio was 1.51. CTATATTCGT was tested, and the switch fluorescence ratio was 0.997. ATGCAGGCGT gave a switch fluorescence ratio of 0.965. AGCGAAAGGG showed a switch fluorescence ratio of 1.01. Sequence AGTCCGATAG has a switch fluorescence ratio of 1.07. Work on GGCCGTAGAT yielded a switch fluorescence ratio of 1.02. TGTCGGGGCT gave a switch fluorescence ratio of 0.994. AGGATGTCAA was tested, and the switch fluorescence ratio was 0.969. With CTCATCGGGA the switch fluorescence ratio was 1.01. With ATTTTATGTT the switch fluorescence ratio was 0.985. With ATTGACAGCT the switch fluorescence ratio was 1.02. In the case of GAATTGCGAG, the switch fluorescence ratio is reported as 0.938. For GAGGCCCTGC, the switch fluorescence ratio was 0.935. TTCATTTGAA showed a switch fluorescence ratio of 0.98. TCAGCAGTGG was tested, and the switch fluorescence ratio was 1.92. With TTATCTAAAG the switch fluorescence ratio was 1.02. Sequence CAGTCGGACG has a switch fluorescence ratio of 0.999. In the case of GCCCTGTCGA, the switch fluorescence ratio is reported as 1.01. GAAGCAATTG was tested, and the switch fluorescence ratio was 1.02. For AACGTGGGA, the switch fluorescence ratio was 1.01. For GGATATGCGG, the switch fluorescence ratio was 1.12. For AAAAGATGTT, the switch fluorescence ratio was 1. Work on TCTGACGTTT yielded a switch fluorescence ratio of 1.02. With ACCGTTATTA the switch fluorescence ratio was 1.05. In the case of GCGACGTCTT, the switch fluorescence ratio is reported as 1.03. Sequence TTATAGACAT has a switch fluorescence ratio of 1.04. For TCTAAGTGAA, the switch fluorescence ratio was 1.02. Work on AGTCGGGCTA yielded a switch fluorescence ratio of 0.979. Sequence TAGTAACCCG has a switch fluorescence ratio of 1.07. For TGAGTTCTGT, the switch fluorescence ratio was 0.94. In the case of AGCGATAAGC, the switch fluorescence ratio is reported as 0.98. Work on GTATACACGG yielded a switch fluorescence ratio of 1.03. GACTAGATCA gave a switch fluorescence ratio of 1.01. In the case of AGAGAGTTTC, the switch fluorescence ratio is reported as 1.08. In the case of GAGCACCGCT, the switch fluorescence ratio is reported as 1.01. In the case of CTGTCTTGGT, the switch fluorescence ratio is reported as 0.99. For GGGACAACTC, the switch fluorescence ratio was 1.05. In the case of ACGATGCCA, the switch fluorescence ratio is reported as 0.989. AGAAATGAGA gave a switch fluorescence ratio of 0.969. AAGGTCTGCG gave a switch fluorescence ratio of 1.07. With CACCAAAACG the switch fluorescence ratio was 1.06. CATATCGGTG was tested, and the switch fluorescence ratio was 0.96. With ACTAGATACA the switch fluorescence ratio was 1. CGTTGTTACG showed a switch fluorescence ratio of 0.933. Sequence ATGTGTGTGT has a switch fluorescence ratio of 0.958. For CTACGAGTTG, the switch fluorescence ratio was 0.998. GGAAAACAGA showed a switch fluorescence ratio of 0.993. ATGGGCCGGT was tested, and the switch fluorescence ratio was 0.992. Sequence TTTAATAACG has a switch fluorescence ratio of 0.996. For ACGCAGTGGA, the switch fluorescence ratio was 1.07.
